Measurements reported in the supplement of paper PMC4604168 (melanoma cell lines).
The list shows a part of the results. Single values are uncertain, as repeats are few or missing.

System: MeWo
Test: cell count relative to DMSO control; melanoma cells; higher = more viable cells
Details: library dose: standard library concentration; 72 h
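Further: cells treated in 1,536-well plates, then fixed and DAPI-stained, with nuclei counted from automated high-throughput microscope images.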

Structure (SMILES) | cell count [%]
COc1cc([C@@H]2c3cc4c(cc3[C@@H](O[C@@H]3O[C@@H]5CO[C@@H](C)O[C@H]5[C@H](O)[C@H]3O)[C@H]3COC(=O)[C@H]23)OCO4)cc(OC)c1O [etoposide] + COc1ccc(-c2ccc3c(N4CCOCC4)nc(N4C[C@@H](C)O[C@@H](C)C4)nc3n2)cc1CO [KU0063794] (first compound 0.1 µM, partner dose 0.1 µM) | 77.9
COc1cc([C@@H]2c3cc4c(cc3[C@@H](O[C@@H]3O[C@@H]5CO[C@@H](C)O[C@H]5[C@H](O)[C@H]3O)[C@H]3COC(=O)[C@H]23)OCO4)cc(OC)c1O [etoposide] + Cc1cc(N2CCOCC2)cc2[nH]c(-c3c(NC[C@@H](O)c4cccc(Cl)c4)cc[nH]c3=O)nc12 [BMS536924] (first compound 0.1 µM, partner dose 1 µM) | 74.1
Cn1cnc2c(F)c(Nc3ccc(Br)cc3Cl)c(C(=O)NOCCO)cc21 [selumetinib] + CN1CCN(c2ccc3nc(-c4c(N)c5c(F)cccc5[nH]c4=O)[nH]c3c2)CC1 [Dovitinib] (first compound 0.075 µM, partner dose 0.5 µM) | 30.9
C[C@]1(O)C[C@@H](c2nc(-c3ccc4ccc(-c5ccccc5)nc4c3)c3c(N)nccn32)C1 + O=S(=O)(c1ccccc1)N(CC(F)(F)F)c1ccc(C(O)(C(F)(F)F)C(F)(F)F)cc1 [T0901317] (first compound 2 µM, partner dose 7 µM) | 77.4

System: RPMI7951
Test: as above
Details: library dose: standard library concentration; 72 h

Structure (SMILES) | cell count [%]
COc1cc([C@@H]2c3cc4c(cc3[C@@H](O[C@@H]3O[C@@H]5CO[C@@H](C)O[C@H]5[C@H](O)[C@H]3O)[C@H]3COC(=O)[C@H]23)OCO4)cc(OC)c1O [etoposide] + NC(=O)Nc1cc(-c2cccc(F)c2)sc1C(=O)N[C@H]1CCCNC1 [AZD7762] (first compound 0.1 µM, partner dose 0.1 µM) | 31.7
CCN(CC)CCNC(=O)c1c(C)[nH]c(/C=C2\C(=O)Nc3ccc(F)cc32)c1C [sunitinib] + Nc1ccn([C@@H]2O[C@H](CO)[C@@H](O)C2(F)F)c(=O)n1 [gemcitabine] (first compound 2 µM, partner dose 0.002 µM) | 68.9
C[C@]1(O)C[C@@H](c2nc(-c3ccc4ccc(-c5ccccc5)nc4c3)c3c(N)nccn32)C1 + O=C(O)c1ccc2c(c1)nc(Nc1cccc(Cl)c1)c1ccncc12 [CX4945] (first compound 2 µM, partner dose 2 µM) | 39.6
COc1cc([C@@H]2c3cc4c(cc3[C@@H](O[C@@H]3O[C@@H]5CO[C@@H](C)O[C@H]5[C@H](O)[C@H]3O)[C@H]3COC(=O)[C@H]23)OCO4)cc(OC)c1O [etoposide] + CS(=O)(=O)c1ccc(C(=O)Nc2ccc(Cl)c(-c3ccccn3)c2)c(Cl)c1 [vismodegib] (first compound 0.1 µM, partner dose 5 µM) | 103
Cn1cnc2c(F)c(Nc3ccc(Br)cc3Cl)c(C(=O)NOCCO)cc21 [selumetinib] + COC(=O)c1sccc1S(=O)(=O)Nc1ccc(Nc2ccccc2)cc1OC [GSK0660] (first compound 0.075 µM, partner dose 5 µM) | 100
CCN(CC)CCNC(=O)c1c(C)[nH]c(/C=C2\C(=O)Nc3ccc(F)cc32)c1C [sunitinib] + COc1cc(Nc2ncc(F)c(Nc3ccc4c(n3)NC(=O)C(C)(C)O4)n2)cc(OC)c1OC [Tamatinib] (first compound 2 µM, partner dose 2 µM) | 19.3
Cn1cnc2c(F)c(Nc3ccc(Br)cc3Cl)c(C(=O)NOCCO)cc21 [selumetinib] + CC(C)(C)c1cnc(CSc2cnc(NC(=O)C3CCNCC3)s2)o1 [SNS-032] (first compound 0.075 µM, partner dose 0.05 µM) | 45.8
C[C@]1(O)C[C@@H](c2nc(-c3ccc4ccc(-c5ccccc5)nc4c3)c3c(N)nccn32)C1 + CCN(CC)CCNC(=O)c1c(C)[nH]c(/C=C2\C(=O)Nc3ccc(F)cc32)c1C [sunitinib] (first compound 2 µM, partner dose 2 µM) | 65.4
COc1cc([C@@H]2c3cc4c(cc3[C@@H](O[C@@H]3O[C@@H]5CO[C@@H](C)O[C@H]5[C@H](O)[C@H]3O)[C@H]3COC(=O)[C@H]23)OCO4)cc(OC)c1O [etoposide] + O=C(Nc1cccc(Cl)c1)Nc1ncc(CCNc2ncnc3ccsc23)s1 [SNS314] (first compound 0.1 µM, partner dose 0.004 µM) | 79.8
